± gives the standard error. Variants at the floor of the assay are shown more often than the library holds them.
B1: glmS ribozyme (parent)
chain: AUAAAAGCGCCAGAACUACAGAAAUGUAGUUGACGAGGAGGAGGUUUAUCGAAUUUUCGGCGGAUGCCUCCAAA

Tests used:
Conditions in all cases: with glucosamine-6-phosphate
glucosamine-6-phosphate [1] = variants of: B1; test: self-cleavage kobs at 40 uM GlcN6P; higher = faster cleavage; RNA array
How it was run: (§1)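 Glucosamine-6-phosphate in HEPES/KCl/Mg(OAc)2 buffer, at 40 μM to 10 mM, was flowed over barcoded ribozyme variants transcribed in situ by E. coli RNA polymerase on sequenced MiSeq chips. Tracking was through a hybridised Cy3 probe at 37 °C. kobs, kcat and KM came from exponential decay fits and weighted Michaelis–Menten fits of normalised per-tile medians.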

glucosamine-6-phosphate [2] = variants of: B1; test: self-cleavage kobs at 640 uM GlcN6P; higher = faster cleavage; RNA array
How it was run: as §1

glucosamine-6-phosphate [3] = variants of: B1; test: self-cleavage kobs at 160 uM GlcN6P; higher = faster cleavage; RNA array
How it was run: as §1

glucosamine-6-phosphate [4] = variants of: B1; test: self-cleavage kobs at 10000 uM GlcN6P; higher = faster cleavage; RNA array
How it was run: as §1

glucosamine-6-phosphate [5] = variants of: B1; test: self-cleavage kobs at 2500 uM GlcN6P; higher = faster cleavage; RNA array
How it was run: as §1

Variant	self-cleavage kobs at 40 uM GlcN6P (glucosamine-6-phosphate [1])	self-cleavage kobs at 640 uM GlcN6P (glucosamine-6-phosphate [2])	self-cleavage kobs at 160 uM GlcN6P (glucosamine-6-phosphate [3])	self-cleavage kobs at 10000 uM GlcN6P (glucosamine-6-phosphate [4])	self-cleavage kobs at 2500 uM GlcN6P (glucosamine-6-phosphate [5])
G9C G43U G44U C58A C71A	< 1e-05 s⁻¹	–	–	–	–
C10A A42G	< 1e-05 s⁻¹	< 1e-05 s⁻¹	< 1e-05 s⁻¹	–	–
C10G G51C C58A	< 1e-05 s⁻¹	< 1e-05 s⁻¹	–	< 1e-05 s⁻¹	–
G9U G35U C68U C70A	< 1e-05 s⁻¹	–	–	< 1e-05 s⁻¹	–
C10A A36G	< 1e-05 s⁻¹	< 1e-05 s⁻¹	< 1e-05 s⁻¹	< 1e-05 s⁻¹	< 1e-05 s⁻¹
G9U G43C	< 1e-05 s⁻¹	< 1e-05 s⁻¹	< 1e-05 s⁻¹	< 1e-05 s⁻¹	< 1e-05 s⁻¹
G9A G51A	< 1e-05 s⁻¹	–	–	–	–
C10A G35U U47C	< 1e-05 s⁻¹	–	–	–	–
C10A G63U	< 1e-05 s⁻¹	< 1e-05 s⁻¹	–	–	–
G9U U57A	< 1e-05 s⁻¹	–	< 1e-05 s⁻¹	< 1e-05 s⁻¹	< 1e-05 s⁻¹
G9U C11A U49C A64G U65G C70U	< 1e-05 s⁻¹	–	–	–	–
G9U C61G	< 1e-05 s⁻¹	4.57e-05 ± 1.2e-05 s⁻¹	–	–	9.21e-05 ± 1.7e-05 s⁻¹
C10A U49G	< 1e-05 s⁻¹	< 1e-05 s⁻¹	< 1e-05 s⁻¹	–	< 1e-05 s⁻¹
G9U U56G	< 1e-05 s⁻¹	< 1e-05 s⁻¹	< 1e-05 s⁻¹	–	< 1e-05 s⁻¹
G9A G43A A53U	< 1e-05 s⁻¹	–	–	–	–
G9U A33U U45G G62U	< 1e-05 s⁻¹	–	–	< 1e-05 s⁻¹	–
G9U G13C C68A	< 1e-05 s⁻¹	–	–	< 1e-05 s⁻¹	–
G9A U30C U31C C50A	< 1e-05 s⁻¹	< 1e-05 s⁻¹	< 1e-05 s⁻¹	< 1e-05 s⁻¹	–
G9C A12U A52G U54C C67U	< 1e-05 s⁻¹	–	–	–	–
G9U U54A	< 1e-05 s⁻¹	–	< 1e-05 s⁻¹	< 1e-05 s⁻¹	< 1e-05 s⁻¹
G9A G40C	< 1e-05 s⁻¹	–	–	–	–
G9A G43C C71A	< 1e-05 s⁻¹	< 1e-05 s⁻¹	< 1e-05 s⁻¹	–	–
G9U C16G	< 1e-05 s⁻¹	–	–	–	< 1e-05 s⁻¹
C10G A33U A48G	< 1e-05 s⁻¹	–	–	–	–
G9C A12C A14G A15G A42C G62U	< 1e-05 s⁻¹	< 1e-05 s⁻¹	–	–	–
G9U G60C	< 1e-05 s⁻¹	< 1e-05 s⁻¹	< 1e-05 s⁻¹	–	–

From the supplement of paper PMC7125110
